# Article PMC7819943, “Rice protein-binding microarrays: a tool to detect cis-acting elements near promoter regions in rice”
# The list shows a part of the results.
# Target: T1, OsWOX13 (Oryza sativa, UniProt Q5QMM3 1-267)
# T1 sequence: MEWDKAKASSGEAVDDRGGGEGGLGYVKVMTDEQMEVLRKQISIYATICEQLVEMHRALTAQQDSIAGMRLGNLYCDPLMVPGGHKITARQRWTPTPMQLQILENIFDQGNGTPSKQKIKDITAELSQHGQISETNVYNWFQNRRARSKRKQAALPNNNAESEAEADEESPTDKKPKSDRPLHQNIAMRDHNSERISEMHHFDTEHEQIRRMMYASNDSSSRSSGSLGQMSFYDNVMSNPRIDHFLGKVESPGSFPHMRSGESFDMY
# Test: protein-binding microarray (RPBM); PBS, 2% BSA, 51.3 ng/ul salmon testes DNA, 50 uM zinc acetate, 200 nM TF, 25 C, 1 h; high values mean tight binding
# Conditions: protein: recombinant; tags: N-terminal polyhistidine and DsRed monomer fusion (pET32a); label: CyDye5-dUTP incorporated in the synthesized complementary strand; 3' TTTTT single-stranded linker to array surface; dsDNA, one strand shown
# In short: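 Transcription factors were each fused at the N-terminus to a polyhistidine tag plus DsRed and expressed in E. coli BL21-CodonPlus before Ni–NTA purification. Binding to a double-stranded custom Agilent array was carried out with 200 nM protein at 25 °C for 1 h in PBS, 2% BSA, salmon testes DNA and 50 µM zinc acetate. The binding signal is per-feature fluorescence intensity, in arbitrary units, on an Axon 4000B scanner.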
row,Sequence,binding signal
1,TGCAATTTCTGTTTCGTTTATTTGTGATGTTTGTATTTATCGGAGTCACCTAGTGCAG,4490 fluorescence intensity (a.u.)
2,CGTACTTACTAAATTAGGGCTAATTTCATCTTTAATTGCTCGGAGTCACCTAGTGCAG,13000 fluorescence intensity (a.u.)
3,ACAGACATAAATACGATTGATTAAGTAGTAGCCTAGCTAACGGAGTCACCTAGTGCAG,14600 fluorescence intensity (a.u.)
4,TGTAATTGGATGGAGGGCGACTTGTTCCATCCAGCCAAGACGGAGTCACCTAGTGCAG,27000 fluorescence intensity (a.u.)
5,AGTTTACTATGATTGTCGTACTTTAACAATGGAGATGGGCCGGAGTCACCTAGTGCAG,3980 fluorescence intensity (a.u.)
6,TTTTCTAATTATGTATGTCAAATTTGAACTTTATATGTCGCGGAGTCACCTAGTGCAG,26000 fluorescence intensity (a.u.)
7,TGTTAATTGTAGCTGACTTCCAGAAGCATATTTGCTTTGTCGGAGTCACCTAGTGCAG,26500 fluorescence intensity (a.u.)
8,GCACCGATTGGCGTTGTTGACAGGTTGGGCCCCAGCGCATCGGAGTCACCTAGTGCAG,14200 fluorescence intensity (a.u.)
9,ATAGTAATTGGTACGCTTGAAATTCTGGACGCTATCTTTTCGGAGTCACCTAGTGCAG,26200 fluorescence intensity (a.u.)
10,TCATAATTACAATGTAGTTCCAAGGCATGTTTGTCACGGCCGGAGTCACCTAGTGCAG,20400 fluorescence intensity (a.u.)
11,ATAAGATTTGAAAATTACTTTTCAACAAATATTTAGTGAACGGAGTCACCTAGTGCAG,7230 fluorescence intensity (a.u.)
12,GTGGCGTGCATTGTCAATCAGACGATCACCGTGGCTGCCCCGGAGTCACCTAGTGCAG,6470 fluorescence intensity (a.u.)
13,TTTGAATATAATTCAAATTCAAATTTGAATCGGGTATATACGGAGTCACCTAGTGCAG,3730 fluorescence intensity (a.u.)
14,TCAAATGAATTCTGTTCAAATTGAAGTCACGTACTCGGGCCGGAGTCACCTAGTGCAG,3310 fluorescence intensity (a.u.)
15,AATGACAGGGAAACTGATAAAATCCTCTCTCATGATACTACGGAGTCACCTAGTGCAG,15800 fluorescence intensity (a.u.)
16,GCGCGTGATGGAGATTACTTGCTCCCTTGCAACGCTAGCTCGGAGTCACCTAGTGCAG,6870 fluorescence intensity (a.u.)
17,CTAACAATAATTTCTTCATTTCTTGCTTTTGCAGAGATTACGGAGTCACCTAGTGCAG,4710 fluorescence intensity (a.u.)
18,CGTGATTTTATAGCTGGGAGGTCGCGTTGTGCGCGGCAGGCGGAGTCACCTAGTGCAG,11700 fluorescence intensity (a.u.)
19,TTCCTAATTAATGTTGCTGCTAATCTCGACTGCTCTCGCTCGGAGTCACCTAGTGCAG,36900 fluorescence intensity (a.u.)
20,TAAATAATCTAGATTAATTCATAGTTGGACAGATATGACCCGGAGTCACCTAGTGCAG,8420 fluorescence intensity (a.u.)
21,GAATCCATCTGTTAGCAATCAGGGCATCAGCTACTGTCAGCGGAGTCACCTAGTGCAG,10100 fluorescence intensity (a.u.)

row,Sequence,binding signal
1,AATGATAAAACAAATTACAACGAAAACAATGATAATTACTCGGAGTCACCTAGTGCAG,4270 fluorescence intensity (a.u.)
2,CCTGTGATTGGTTGGCTCGACGTGATGGGCCCCGTTTGTCCGGAGTCACCTAGTGCAG,35700 fluorescence intensity (a.u.)
3,ATAATTTGAGCAGGTCAATCTAAACACGCTGTCAAGGACTCGGAGTCACCTAGTGCAG,6560 fluorescence intensity (a.u.)
4,AAGTTCATAATTCTGTTTAATCATTATGCAATTAAGCTCACGGAGTCACCTAGTGCAG,3710 fluorescence intensity (a.u.)
5,CCCCACTAATCACCCATCTTCCTAATCAACTTGAGTTCCTCGGAGTCACCTAGTGCAG,9240 fluorescence intensity (a.u.)
6,AAGATTGTCATTTGGTTGATTGTTGACCCAGATGAATTAACGGAGTCACCTAGTGCAG,8040 fluorescence intensity (a.u.)
7,TTGATAAGACCGTTCACAATTTCTTGAAGCTCGATCTCCCCGGAGTCACCTAGTGCAG,22600 fluorescence intensity (a.u.)
8,AAATGATTTGTTTGTGAACTGTTGTCAAGATATAATCAGCCGGAGTCACCTAGTGCAG,33100 fluorescence intensity (a.u.)
9,ATTAATGTATACAAAATTGCCTTTACCATGTTATAGATACCGGAGTCACCTAGTGCAG,12400 fluorescence intensity (a.u.)
10,CCATCGTAATTGATCGAAAACTGACAACATGTTAGGGTTGCGGAGTCACCTAGTGCAG,12700 fluorescence intensity (a.u.)
11,ATAAATTTTACTACCGCAGAATGCTGTTCCGTTTTAAAAGCGGAGTCACCTAGTGCAG,3270 fluorescence intensity (a.u.)
12,CATAATTACCAGACATGTTAAATTTAATATATGGATGTATCGGAGTCACCTAGTGCAG,40800 fluorescence intensity (a.u.)
13,ATAGCCAATCTAATAGCTAATTTATACAATAGTTACTTACCGGAGTCACCTAGTGCAG,27500 fluorescence intensity (a.u.)
14,AATAACTAATTGCATAGATTGTGACTAATTTGCGATGCGACGGAGTCACCTAGTGCAG,55200 fluorescence intensity (a.u.)
15,GGTTGTTGATTGCGCACGGATTTCCTCTGTTGTCTTGAGCCGGAGTCACCTAGTGCAG,40500 fluorescence intensity (a.u.)
16,TAAACTAGATAAATTGTCTGTGCGTTGTAATGGGTGAACACGGAGTCACCTAGTGCAG,5600 fluorescence intensity (a.u.)
17,GTTGGTTAATTGCAATTTAATTGTTGTATTGTAAGAGTCTCGGAGTCACCTAGTGCAG,56100 fluorescence intensity (a.u.)
18,TTGATTTACATGCAAATTGCCTTGTTTCGCCTTGAGCTTGCGGAGTCACCTAGTGCAG,33500 fluorescence intensity (a.u.)
19,CATTTGATTTGTAGAAAGAATATATAAATTTTAGAGGATTCGGAGTCACCTAGTGCAG,16100 fluorescence intensity (a.u.)
20,GTAAGAATTGGCTGTTAGATTGGCTATAAATGAATTGGAGCGGAGTCACCTAGTGCAG,35700 fluorescence intensity (a.u.)
21,CTCAATGATGGGCCTTGACCGAAAACGACGCTGTCAGACTCGGAGTCACCTAGTGCAG,4730 fluorescence intensity (a.u.)
